These results are taken from PubChem BioAssay AID463173 (ICCB-Longwood Screening Facility, Harvard Medical School, 2010).

Screen size: about 52,000 compounds; about 1,700 (3.3%) were called active. No stated cut-off is given here; in the data, active means survival mostly below about 52% (no sharp cut-off); inactive means mostly above about 56%. This is one part of the list.

The assay concerns Wild type. As to the kind of experiment: S. aureus survival, RN4220 and DeltatarO strains – OD600, teichoic acid synthesis inhibitors, primary screen (AID 463173). As to conditions: S. aureus RN4220 wild type/DeltatarO growth, OD600, 18 h, hits give low values, screened at 18.75 µg/mL (by protocol).
With `CC1=C(C(=O)Nc2ccccc2)C(c2ccco2)C(C#N)=C(SCC(=O)Nc2ccccc2)N1` (configuration not stated), the survival is inactive: 114%.

Regarding `Cc1ccc(NC(=O)CSc2nncn3c2cc2sccc23)cc1F`, the survival was inactive: 74%.

Consider `CCCCOC(=O)c1ccc(NC2=NS(=O)(=O)c3ccccc32)cc1`, for which the survival was inactive: 78%.

For the molecule `Cc1nn(-c2ccc(N3CCCC3)nn2)c(C)c1CCC(=O)Nc1ccccc1`, the survival was inactive: 92%.

As to `Cc1cccc(NC(=O)CCn2nc(C)c3c(C)n(-c4ccccc4)nc3c2=O)c1C`, the survival was inactive: 65%.

In the case of `CC(C)c1ccc(NC(=O)c2cc(S(=O)(=O)N3CCc4ccccc4C3)ccc2F)cc1`, the survival is inactive: 128%.

Regarding `Cc1ccc(-c2nc3n(n2)C(=O)CC(c2ccc(C)cc2)S3)cc1` (configuration not stated), the survival was inactive: 92%.

As to `Cc1ccc2cc(CN(Cc3cccnc3)C(=O)c3cccnc3)c(=O)[nH]c2c1`, the survival is inactive: 108%.

For `COc1ccc(S(=O)(=O)NCc2ccc3c(c2)CCN3C(C)=O)cc1OC`, the survival is inactive: 84%.

With `CCOc1ccc(CN2C(=O)c3ccccc3Sc3ccc(C(=O)NCCCN4CCOCC4)cc32)cc1`, the survival is inactive: 145%.

For the molecule `Cc1ccc(NC(=O)CCS(=O)(=O)c2ccc3nc(C)sc3c2)c(C)c1`, the survival was inactive: 102%.

Turning to `O=C(Nc1ccc(Cl)c(Cl)c1)N(Cc1c[nH]c2ccccc12)C1CCCCC1`, the survival is inactive: 86%.

As to `CCOc1ccc(S(=O)(=O)N(CC(=O)NCCc2ccc(OC)cc2)c2ccccc2)cc1`, the survival is inactive: 101%.

Turning to `COc1ccccc1N1CCN(c2c(CN3CCCC3)c(=O)oc3ccccc23)CC1`, the survival is inactive: 77%.

With `CN(C)c1ncc(C(=O)NCc2ccccc2Cl)cn1`, the survival is inactive: 64%.

Regarding `CCOc1ccc(C(=O)Nc2ccc(NC(=O)c3ccccc3)cc2)cc1Br`, the survival is inactive: 79%.

As to `CCOC(=O)c1ccc(N2CCN(c3ccc(F)cc3)CC2)c(NC(=O)Nc2ccc(CC)cc2)c1`, the survival was inactive: 131%.

For `COC(=O)c1ccc([C@H]2Nc3ccc(S(=O)(=O)Nc4ccc(F)cc4)cc3[C@H]3C=CC[C@H]32)cc1`, the survival is inactive: 69%.

Turning to `Cc1ccc(S(=O)(=O)N2CCCc3cc(NS(=O)(=O)c4ccccc4)ccc32)cc1`, the survival is inactive: 77%.

Consider `Cc1cc(OCC(=O)Nc2sc3c(c2C#N)CCC(C)C3)ccc1Cl` (configuration not stated), for which the survival is inactive: 73%.

On to `O=C(c1ccco1)N1CCN(C2c3cccc4cccc(c34)C2NS(=O)(=O)c2ccccc2)CC1` (configuration not stated), for which the survival was inactive: 115%.

On to `Cc1ccc2[nH]c(=O)c3cc(C(=O)NCc4cccc(Cl)c4)sc3c2c1`, for which the survival was inactive: 72%.

As for `CCOC(=O)CNC(=O)Nc1cc(C(=O)NCc2ccc(C(C)C)cc2)ccc1N1CCCC1`, the survival is inactive: 78%.

With `Cc1cc(C)c(/C=C/c2onc(C)c2S(=O)(=O)N2CCC(C(=O)Nc3cccc(C)c3C)CC2)c(C)c1`, the survival is inactive: 125%.

On to `COc1ccccc1-c1noc(CSc2nnc(-c3ccccc3)n2-c2ccc(C)c(C)c2)n1`, for which the survival is inactive: 81%.

For `CCOC(=O)c1c(C)oc2nc(C)nc(N(C)Cc3ccccc3)c12`, the survival is inactive: 125%.

For the molecule `CC(=O)c1ccc(NC(=O)CSc2nc(-c3ccccc3C)nc3c2c(=O)n(C)c(=O)n3C)cc1`, the survival was inactive: 121%.

As for `O=C(C1CCCN(S(=O)(=O)c2cccc3nonc23)C1)N1CCN(c2cccc(C(F)(F)F)c2)CC1` (configuration not stated), the survival is inactive: 77%.

Consider `CCc1cc2cc3c(cc2nc1SCC(=O)N1CCCCC1)OCO3`, for which the survival is inactive: 102%.

Consider `O=C(CSc1ncc(-c2ccc(Cl)cc2)[nH]1)Nc1ccccc1F`, for which the survival is inactive: 64%.

Consider `CCOc1ccc(C(=O)c2cn(Cc3cccc(OC)c3)c3cc4c(cc3c2=O)OCO4)cc1`, for which the survival is inactive: 86%.

Take `Cc1ccc(S(=O)(=O)N2CCCC2C(=O)Nc2ccc(Br)cc2)cc1` (configuration not stated): the survival is inactive: 112%.

For the molecule `COc1cc2c(cc1OC)C(CC(=O)O)N(C(=O)Nc1cc(OC)c(OC)c(OC)c1)CC2` (configuration not stated), the survival is inactive: 77%.

In the case of `Cc1cc(C)c2c(n1)sc1c(Cl)ncnc12`, the survival was inactive: 109%.

In the case of `Cn1c(SCCN2CCCC2)nnc1-c1ccncc1`, the survival is inactive: 112%.

Consider `Cc1ccc(C)c(N2CCN(CCCNC(=O)c3ccc4nc(N5CCC(C)CC5)sc4c3)CC2)c1`, for which the survival is active: 1%.

In the case of `CCc1ccc(C2=NN(CCC(=O)NCCc3ccccc3)C(=O)CC2)cc1`, the survival is inactive: 78%.

Turning to `Cc1ccc(-n2cnc3ccccc3c2=O)cc1Cl`, the survival was inactive: 91%.

`CCOC(=O)C1=C(C)NC(=O)C1CC(=O)O` (configuration not stated): the survival is inactive: 98%.

In the case of `CCc1c(C)c2cc3c(c(C)c2oc1=O)OCN(CCc1ccc(OC)c(OC)c1)C3`, the survival is inactive: 82%.

As for `CC(=O)c1ccc(Nc2cc(C)nc3nc(Cc4ccccc4)nn23)cc1`, the survival was inactive: 82%.

Consider `CCc1cccc(NC(=O)C(Cc2ccccc2)NS(=O)(=O)c2cccs2)c1` (configuration not stated), for which the survival was inactive: 56%.

Regarding `COc1ccc(-n2c(=O)c3c4c(sc3n(Cc3ccccc3C)c2=O)CCCC4)c(OC)c1`, the survival was inactive: 61%.

Consider `COc1ccc(N(CC(=O)NCCc2ccccc2)S(=O)(=O)c2c(C)nn(C)c2C)cc1`, for which the survival was inactive: 114%.

Regarding `CCOc1nc(NCCO)nc(NCCC2=CCCCC2)n1`, the survival was inactive: 104%.

Take `CCCn1c2ccccc2c2cnn(CC(=O)Nc3cc(OC)c(OC)c(OC)c3)c(=O)c21`: the survival was inactive: 123%.

As to `Cc1ccc(N2CCN(C(=O)Cn3ncc4c([nH]c5ccc(C)cc54)c3=O)CC2)c(C)c1`, the survival is inactive: 71%.

As to `CCC1(C)CC(=O)c2c(ccc3oc(C(=O)Nc4ccc(C(C)=O)cc4)c(C)c23)O1` (configuration not stated), the survival was inactive: 93%.

With `CCOc1ccc(C(=O)NCCc2csc(-c3cccc(C)c3)n2)cc1`, the survival was inactive: 78%.

As for `COc1ccc(C(=O)OCC(=O)c2ccc(C)cc2)cc1OC`, the survival is inactive: 122%.

As to `CC(C)c1ccc(Nc2sc(C(=O)c3ccccc3)c(N)c2S(=O)(=O)c2ccccc2)cc1`, the survival is inactive: 79%.

On to `CCc1nc2ccc(C(=O)N3CCN(c4cccc(Cl)c4)CC3)cc2nc1CC`, for which the survival is inactive: 85%.

Take `CC(C)CC(=O)Nc1nnc(S(=O)(=O)N2c3ccccc3CC2C)s1` (configuration not stated): the survival was inactive: 86%.

With `CSc1nnc(COc2ccc(Cl)cc2)n1C`, the survival is inactive: 101%.

Regarding `CCOc1ccc(CCNC(=O)CCCn2c(=O)c3cccn3c3cccnc32)cc1`, the survival is inactive: 97%.

`COc1ccc(C2CCN(C(=O)N(C(C)C)C(C)C)CC2)cc1`: the survival was inactive: 111%.

As to `OC(CNCC1CCCO1)Cn1c2ccccc2c2ccccc21` (configuration not stated), the survival was inactive: 113%.

Consider `CCOCCOC(=O)c1ccc2c(c1)N(Cc1ccccc1C#N)C(=O)c1ccccc1S2(=O)=O`, for which the survival is inactive: 80%.

For `CCN(c1ccccc1)S(=O)(=O)c1ccc(NC(=O)c2nc(S(C)(=O)=O)ncc2Cl)cc1`, the survival is active: 0%.

Consider `CCc1ccc(C(=O)COC(=O)C(NC(=O)C2CCC(C)CC2)C(C)C)cc1` (configuration not stated), for which the survival is inactive: 82%.

Consider `COc1cc(CNC(=O)c2cnc3c(-c4cccc(C)c4)c(C)nn3c2C)cc(OC)c1OC`, for which the survival is inactive: 74%.

Regarding `COc1ccc(-c2cc3ccc(O)c(CN4CCN(C)CC4)c3oc2=O)cc1OC`, the survival was inactive: 120%.

In the case of `CCCc1ccc(OCC(=O)Nc2sc3c(c2C(=O)OCC)CCC(C(C)(C)C)C3)cc1` (configuration not stated), the survival is inactive: 117%.

Turning to `CC(=O)Nc1ccc(Nc2ccc3cc(S(=O)(=O)N4CCCCC4)ccc3n2)cc1`, the survival was inactive: 67%.

Take `O=C(NC1CC(=O)N(c2ccc(Cl)cc2)C1)c1cc2ccccc2o1` (configuration not stated): the survival was inactive: 64%.

As to `Nc1cc(=O)nc(SCC(=O)Nc2ccccc2)n1CCc1ccccc1`, the survival was inactive: 69%.

For `Cc1cccc(CNS(=O)(=O)c2ccc(-c3coc(C)n3)cc2)c1`, the survival is inactive: 78%.

Consider `CCOC(=O)c1c(-c2ccc(OC)c(OC)c2)csc1NC(=O)c1ccccc1F`, for which the survival is inactive: 67%.

For `COc1ccccc1Nc1nc(-c2ccccc2)c(CC(=O)O)s1`, the survival is inactive: 54%.

As for `COc1ccc2c(c1)c1c(c(=O)n(-c3cccc(C)c3)c(=O)n1CC(=O)NCCC1=CCCCC1)n2C`, the survival is inactive: 74%.

As to `O=c1c2cccnc2n(Cc2cccc(F)c2)c(=O)n1Cc1ccc(F)cc1`, the survival is inactive: 116%.

Turning to `CCC(Nc1ccc(-c2nc(-c3cccnc3)no2)cc1[N+](=O)[O-])c1ccccc1` (configuration not stated), the survival is inactive: 83%.

Turning to `COc1ccc2[nH]cc(CCNC(=O)Nc3cc(C)cc(C)c3)c2c1`, the survival is inactive: 124%.

As for `Cc1ccc2nc3c(cc(C(=O)NC4CCCC4)c(=N)n3C(C)C)c(=O)n2c1`, the survival was inactive: 80%.

As to `O=C(O)CCn1cnc2sc3c(c2c1=O)CCCC3`, the survival is inactive: 80%.

As to `O=C1Cc2cc(S(=O)(=O)Nc3ccc(OC(F)(F)F)cc3)cc3c2N1CCC3`, the survival is inactive: 148%.

As for `Cc1ccccc1NC(=O)C1C2CCCCC21` (configuration not stated), the survival was inactive: 110%.

As to `Cc1ccccc1OCC(=O)Nc1ccc2nc(SCC(=O)N3CCCC3)sc2c1`, the survival is inactive: 48%.

`COc1ccc(S(=O)(=O)c2nnn(-c3cccc(Cl)c3)c2N)cc1`: the survival is inactive: 69%.

For the molecule `CCOC(=O)c1cc(-c2ccc(OC)c(S(=O)(=O)N3CCN(c4ccccc4)CC3)c2)on1`, the survival is inactive: 69%.

As to `COCCn1ccc2c(OCC(=O)Nc3cccc(C(F)(F)F)c3)cccc2c1=O`, the survival is inactive: 78%.

For the molecule `COc1ccc(N2CC(NC(=O)C(c3ccccc3)c3ccccc3)CC2=O)cc1` (configuration not stated), the survival was inactive: 91%.

In the case of `COc1cccc(CNC(=O)c2ccc3c(c2)sc2nc(-c4cccc(OC)c4)cn23)c1`, the survival is inactive: 74%.

As to `CCOC(=O)c1c(S(=O)(=O)N2CCC(C(=O)NCc3ccccc3Cl)CC2)c(C)n(C)c1C`, the survival is inactive: 83%.

Turning to `Cc1cccc(N2CCN(C(=O)c3cnn(-c4ccccc4)c3C3CCN(C(=O)OC(C)(C)C)CC3)CC2)c1C`, the survival is inactive: 72%.

Consider `CCOC(=O)c1c(NC(=O)C(C)Sc2cn(CCNC(=O)c3ccc(OCC)cc3)c3ccccc23)sc2c1CCC2` (configuration not stated), for which the survival is inactive: 79%.

In the case of `CCOC(=O)c1ccc(NC(=O)Cn2nc(C)c3nn(-c4ccc(Cl)cc4)c(C)c3c2=O)cc1`, the survival was inactive: 81%.
